In patent US4301065A, “Novel polypeptides having thymic activity or an antagonistic activity and processes for their synthesis” (Agence Nationale de Valorisation de la Recherche (ANVAR), priority 1977, dated 1981):
“And” between values parts separate entries of the source, which are not always exact repeats. Equal values may be shown once. Part of at least one peptide drawing is inferred or uncertain, most often the ends. Some compounds share one wording; it may come from a single statement. Square brackets hold non-standard residues; d marks the D form. Ends that are not written are not given here. Peptide text beside a SMILES is read from it. * marks the point of attachment. pGlu = O=C1CC[C@@H](C(=O)O)N1; Cbz = O=C(OCc1ccccc1)*

Assays:
thymectomised mice [1] = experiment: Kinetics of the activity in the serum after injection of peptide without carboxymethyl cellulose; type: in vivo; details: FIG. 1; 1 ng of polypeptide not bonded with carboxymethyl cellulose
Text: These kinetics have also been established for active products, but without any delay action, by way of comparison. The results of these tests have been established in the form of curves in FIGS. 1, 2 and 3 of the accompanying drawings.

[2] = system: mice of strain CBA as receiver; experiment: Skin homo-graft rejection (test No. 6); type: in vivo; details: 10 or 100 ng, 3 injections per week from 8 days before grafting; STF bonded with carboxymethyl cellulose, delay-action polypeptides not bonded
[3] = system: rosette-forming cells of the spleen of thymectomised mice; experiment: Test in vivo on the spleen: correction of the reactivity of rosette-forming spleen cells to azathioprine; details: Table II, individual values
Protocol: (3) Correction of the abnormal reactivity of the cells forming the rosettes of the spleen with azathioprine in thymectomised mice 24 hours after injecting the peptide (0.1, 1 and 10 ng) bonded to the carboxymethyl cellulose.
The tests on the spleen were carried out by determining the quantity of azathioprine which is necessary for inhibiting the rosette-forming cells of the spleen of thymectomised mice after an established time (24 hours and possibly also 48 hours) after the injection of an established quantity of polypeptide (0.1, 1 or 10 ng).

antibodies = experiment: Bonding with the antibodies; type: binding; parameters: key: +: the peptide is bonded; -: is not bonded to the antibodies
Text: The suitability of the peptides for being bonded to the antibodies is indicated by the + and - symbols, which respectively signify that the peptide is bonded or is not bonded to the antibodies.

[4] = system: cells of the spleen forming rosettes (RFC); experiment: Rosette test in vitro (thymic activity); type: cell-based, adult C 57/B1 6 mice; details: for Activity in vitro: Table I; for Active concentration (ng/ml) (test in vitro): Table II, azathioprine 10 μg/ml, 90 minutes at 37° C.
Protocol: The thymic activity of the polypeptide is established by incubation in a hemolysis tube with 3×10^6 cells of the spleen originating from adult C 57/B1 6 mice (supplied by the Centre d'Elevage des Animaux de Laboratoire of C.N.R.S. (45 Orleans, La Source), thymectomised 10 to 20 days previously. The thymectomy method is described by M. Dardenne and J. F. Bach in Immunology, 25, 343 (1973) on page 344. The contents of this article are incorporated herein by reference.
The incubation is carried out for 90 minutes at 37° C. in the presence of azathioprine (Az) at a concentration of 10 μg/ml.
On completion of the incubation, 12×10^6 red cells from sheep's blood (SRBC) are added to the cells in the test specimen. The cells in the specimen are centrifuged for 6 minutes at 200 g and carefully brought gently into suspension by rotation on a roller (diameter 10 cm) at a low speed (10 r.p.m.). The RFC are counted in a hematocytometer.
(1) Activity in vitro in the rosette test.

thymectomised mice [5] = experiment: Activity in vivo: study of the serum after injection of peptide absorbed on carboxymethyl cellulose; details: for Activity in vivo: Table I, thymectomised mice; for Active or inactive polypeptide (conclusion from Tables I to IV): overall judgement of the tests in vitro and in vivo
Protocol: The peptides active in vitro were also checked in tests carried out in vivo. Injected into 6 weeks old thymectomised mice and used 8 weeks after the thymectomy, the peptides produce the appearance at the 15th minute in the serum of a biological activity conferring the sensitivity to the azothioprine of the spleen cells forming rosettes. […] (2) Activity in vivo (study of the serum 2 hours and 4 hours after injection into thymectomised mice in different quantities (0.1, 1 or 10 ng) of peptide absorbed on carboxymethyl cellulose). The results of the tests in vivo on the serum and on the spleen, set out in Tables II, III and IV, were established by the procedure as previously indicated.

[6] = system: spleen cells of thymectomised mice; experiment: Test in vitro of the inhibiting or antagonising activity of inactive polypeptides against STF; type: cell-based; details: inactive polypeptide incubated with STF and spleen cells of thymectomised mice

Compound | Delay-action in the kinetics of the serum activity (thymectomised mice [1]) | Rejection of the skin grafts [2] | Spleens (test in vivo) 24 hours after injection: Quantity of azathioprine (μg) ([3]; quantity injected 0,1 ng) | Spleens (test in vivo) 24 hours after injection: Quantity of azathioprine (μg) ([3]; quantity injected 1 ng) | Bonding with the antibodies (antibodies; Table I) | Bonding with the antibodies (antibodies; Table II) | Activity in vitro [4] | Active concentration (ng/ml) (test in vitro) [4] | Activity in vivo (thymectomised mice [5]) | Active or inactive polypeptide (conclusion from Tables I to IV) (thymectomised mice [5]) | Spleens (test in vivo) 24 hours after injection: Quantity of azathioprine ([3]; quantity injected 0,1 ng) | Spleens (test in vivo) 24 hours after injection: Quantity of azathioprine ([3]; quantity injected 1 ng) | Antagonistic or inhibiting action in vitro as regards STF [6] | Spleens (test in vivo) 24 hours after injection: Quantity of azathioprine ([3]; quantity injected 10 ng)
C[C@H](NC(=O)[C@@H]1CCC(=O)N1)C(=O)N[C@@H](CCCCN)C(=O)N[C@@H](CO)C(=O)N[C@@H](CCC(N)=O)C(=O)NCC(=O)NCC(=O)N[C@@H](CO)C(=O)N[C@@H](CC(N)=O)C(=O)O [STF, PyroGlu-Ala-Lys-Ser-Gln-Gly-Gly-Ser-Asn, reference compound] ([pGlu]AKSQGGSN-OH) | without delay-action | very significantly retarding the rejection of the skin grafts |  |  |  |  |  |  |  |  |  |  |  | 
C[C@H](NC(=O)[C@H](CCC(N)=O)NC(=O)OCc1ccccc1)C(=O)N[C@@H](CCCCN)C(=O)N[C@@H](CO)C(=O)N[C@@H](CCC(N)=O)C(=O)NCC(=O)NCC(=O)N[C@@H](CO)C(=O)N[C@@H](CC(N)=O)C(=O)O [Peptide 34, Z-Gln-Ala-Lys-Ser-Gln-Gly-Gly-Ser-Asn] (Cbz-QAKSQGGSN-OH) | without delay-action |  | 0,3 μg (2×) and 0,7 μg | 0,3 μg (2×) and 0,7 μg | + | + | active: + | 2.10^-6 ng/ml | active: + | active |  |  |  | 
C[C@@H](N)C(=O)N[C@@H](CCCCN)C(=O)N[C@@H](CO)C(=O)N[C@@H](CCC(N)=O)C(=O)NCC(=O)NCC(=O)N[C@@H](CO)C(=O)N[C@@H](CC(N)=O)C(=O)O [Peptide 45, D-Ala-Lys-Ser-Gln-Gly-Gly-Ser-Asn] (H-[dA]KSQGGSN-OH) | without delay-action |  |  |  | + | +2 | inactive: - | < 0,03 ng/ml | inactive: - | inactive | 25 μg (3×) and 50 μg (3×) |  |  | 
C[C@H](NC(=O)[C@@H]1CCC(=O)N1)C(=O)N[C@@H](CCCCN)C(=O)N[C@@H](CO)C(=O)N[C@@H](CCC(N)=O)C(=O)NCC(=O)NCC(=O)N[C@@H](CO)C(=O)O [Peptide 42, PyroGlu-Ala-Lys-Ser-Gln-Gly-Gly-Ser] ([pGlu]AKSQGGS-OH) |  |  |  |  | - | - | inactive: - | < 0,03 ng/ml | inactive: - | inactive |  | 25 µg and 50 µg and 6 µg | antagonistic | 
C[C@H](NC(=O)[C@@H]1CCC(=O)N1)C(=O)N[C@@H](CCCCN)C(=O)N[C@@H](CO)C(=O)N[C@@H](CCC(N)=O)C(=O)NCC(=O)NCC(=O)N[C@@H](CO)C(=O)N[C@@H](CCC(N)=O)C(=O)O [Peptide 79, PyroGlu-Ala-Lys-Ser-Gln-Gly-Gly-Ser-Gln] ([pGlu]AKSQGGSQ-OH) |  |  |  |  | - | - | inactive: - | < 0,03 ng/ml | inactive: - | inactive | 25 μg (2×) and 50 μg |  | antagonistic | 
KSQGGSN [Peptide 37, Lys-Ser-Gln-Gly-Gly-Ser-Asn] | without delay-action |  |  |  | + | + | active: + | 0,03 ng/ml and 0,007 ng/ml | active: + | active | 25 µg |  |  | 6 μg (2×) and 12 μg and 3 μg (2×)
SQGGSN [Peptide 36, Ser-Gln-Gly-Gly-Ser-Asn] |  |  |  |  | - | - | inactive: - | 0,3 ng/ml and 0,6 ng/ml | inactive: - | inactive |  | 50 µg | antagonistic | 
C[C@H](NC(=O)CNC(=O)CNC(=O)[C@H](CCC(N)=O)NC(=O)[C@H](CO)NC(=O)[C@H](CCCCN)NC(=O)[C@H](C)NC(=O)[C@@H]1CCC(=O)N1)C(=O)N[C@@H](CC(N)=O)C(=O)O [Peptide 59, PyroGlu-Ala-Lys-Ser-Gln-Gly-Gly-Ala-Asn] ([pGlu]AKSQGGAN-OH) |  |  |  |  | + | + | inactive: - | 0,03 ng/ml and < 0,03 ng/ml | inactive: - | inactive | 50 μg (2×) and 25 μg | 50 μg (2×) and 25 μg | antagonistic | 
